Experimental data from the supplement of paper PMC8728848.
Some of the results follow.

Assays:
Assay in all cases: glycan array binding signal (z-score within array); higher = stronger binding
Conditions in all cases: glycan notation: IUPAC condensed, linker removed
Gal(a1-3)Gal(b1-3)GlcNAc = biological target: Gal(a1-3)Gal(b1-3)GlcNAc
Outline: (§1)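 The Consortium for Functional Glycomics database supplied 3228 glycan arrays, of which those lacking an available protein sequence were dropped. The binding signal, a within-array Z-score, was averaged across arrays of the same protein sequence and across linkers. Negative scores can be read as non-binding.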

[1] = biological target: Gal(a1-3)Gal(b1-3)GlcNAc(b1-2)Man(a1-3)[Gal(a1-3)Gal(b1-3)GlcNAc(b1-2)Man(a1-6)]Man(b1-4)GlcNAc(b1-4)GlcNAc
Outline: as §1

[2] = biological target: Gal(a1-3)Gal(b1-3)GlcNAc(b1-3)GalNAc
Outline: as §1

[3] = biological target: Gal(a1-3)Gal(b1-3)GlcNAc(b1-6)GalNAc
Outline: as §1

[4] = biological target: Gal(a1-3)Gal(b1-3)[Fuc(a1-4)]GlcNAc(b1-2)Man(a1-3)[Gal(a1-3)Gal(b1-3)[Fuc(a1-4)]GlcNAc(b1-2)Man(a1-6)]Man(b1-4)GlcNAc(b1-4)GlcNAc
Outline: as §1

Gal(a1-3)Gal(b1-4)Glc = biological target: Gal(a1-3)Gal(b1-4)Glc
Outline: as §1

Gal(a1-3)Gal(b1-4)GlcNAc = biological target: Gal(a1-3)Gal(b1-4)GlcNAc
Outline: as §1

[5] = biological target: Gal(a1-3)Gal(b1-4)GlcNAc(b1-3)GalNAc
Outline: as §1

[6] = biological target: Gal(a1-3)Gal(b1-4)GlcNAc(b1-6)GalNAc
Outline: as §1

[7] = biological target: Gal(a1-3)Gal(b1-4)[Fuc(a1-3)]GlcNAc
Outline: as §1

[8] = biological target: Gal(a1-3)Gal(b1-4)[Fuc(a1-3)]GlcNAc(b1-2)Man(a1-3)[Gal(a1-3)Gal(b1-4)[Fuc(a1-3)]GlcNAc(b1-2)Man(a1-6)]Man(b1-4)GlcNAc(b1-4)GlcNAc
Outline: as §1

Gal(a1-3)GalNAc = biological target: Gal(a1-3)GalNAc
Outline: as §1

[9] = biological target: Gal(a1-3)[Gal(a1-4)]Gal(b1-4)GlcNAc
Outline: as §1

[10] = biological target: Gal(a1-4)Gal(b1-3)GlcNAc(b1-2)Man(a1-3)[Gal(a1-4)Gal(b1-3)GlcNAc(b1-2)Man(a1-6)]Man(b1-4)GlcNAc(b1-4)GlcNAc
Outline: as §1

Gal(a1-4)Gal(b1-4)Glc = biological target: Gal(a1-4)Gal(b1-4)Glc
Outline: as §1

Gal(a1-4)Gal(b1-4)GlcNAc = biological target: Gal(a1-4)Gal(b1-4)GlcNAc
Outline: as §1

[11] = biological target: Gal(a1-4)Gal(b1-4)GlcNAc(b1-2)Man(a1-3)[Gal(a1-4)Gal(b1-4)GlcNAc(b1-2)Man(a1-6)]Man(b1-4)GlcNAc(b1-4)GlcNAc
Outline: as §1

[12] = biological target: Gal(a1-4)Gal(b1-4)GlcNAc(b1-3)Gal(b1-4)Glc
Outline: as §1

Gal(a1-4)GlcNAc = biological target: Gal(a1-4)GlcNAc
Outline: as §1

Gal(a1-6)Glc = biological target: Gal(a1-6)Glc
Outline: as §1

Gal(b1-2)Gal = biological target: Gal(b1-2)Gal
Outline: as §1

Gal(b1-3)Gal = biological target: Gal(b1-3)Gal
Outline: as §1

Gal(b1-3)Gal(b1-4)GlcNAc = biological target: Gal(b1-3)Gal(b1-4)GlcNAc
Outline: as §1

[13] = biological target: Gal(b1-3)Gal(b1-4)GlcNAc(b1-2)Man(a1-3)[Gal(b1-3)Gal(b1-4)GlcNAc(b1-2)Man(a1-6)]Man(b1-4)GlcNAc(b1-4)GlcNAc
Outline: as §1

Gal(b1-3)GalNAc = biological target: Gal(b1-3)GalNAc
Outline: as §1

[14] = biological target: Gal(b1-3)GalNAc(a1-3)[Fuc(a1-2)]Gal(b1-4)Glc
Outline: as §1

[15] = biological target: Gal(b1-3)GalNAc(a1-3)[Fuc(a1-2)]Gal(b1-4)GlcNAc
Outline: as §1

[16] = biological target: Gal(b1-3)GalNAc(b1-3)Gal(a1-4)Gal(b1-4)Glc
Outline: as §1

[17] = biological target: Gal(b1-3)GalNAc(b1-4)Gal(b1-4)Glc
Outline: as §1

[18] = biological target: Gal(b1-3)GalNAc(b1-4)[Neu5Ac(a2-3)]Gal(b1-4)Glc
Outline: as §1

Gal(b1-3)GlcNAc = biological target: Gal(b1-3)GlcNAc
Outline: as §1

[19] = biological target: Gal(b1-3)GlcNAc(a1-3)Gal(b1-4)GlcNAc
Outline: as §1

[20] = biological target: Gal(b1-3)GlcNAc(a1-6)Gal(b1-4)GlcNAc
Outline: as §1

[21] = biological target: Gal(b1-3)GlcNAc(b1-2)Man(a1-3)[Gal(b1-3)GlcNAc(b1-2)Man(a1-6)]Man(b1-4)GlcNAc(b1-4)GlcNAc
Outline: as §1

[22] = biological target: Gal(b1-3)GlcNAc(b1-2)Man(a1-3)[Gal(b1-3)GlcNAc(b1-2)Man(a1-6)]Man(b1-4)GlcNAc(b1-4)[Fuc(a1-6)]GlcNAc
Outline: as §1

[23] = biological target: Gal(b1-3)GlcNAc(b1-2)Man(a1-3)[GlcNAc(b1-4)][Gal(b1-3)GlcNAc(b1-2)Man(a1-6)]Man(b1-4)GlcNAc(b1-4)GlcNAc
Outline: as §1

[24] = biological target: Gal(b1-3)GlcNAc(b1-2)[Gal(b1-3)GlcNAc(b1-6)]Man(a1-6)[Gal(b1-3)GlcNAc(b1-2)Man(a1-3)]Man(b1-4)GlcNAc(b1-4)GlcNAc
Outline: as §1

B1: ArathEULS3 (Arabidopsis thaliana), Q945P1 (protein)
chain: MEHHHQHHRHHQRDDGEDDRQSFGVPPPHVDAPPQPHGLYQSQPHFDPYAPTPQAPAPYRSETQFEPHAPPPYRSEPYFETPAPPPSFGHVSHVGHQSPNESYPPEHHRYGGYQQPSNSLLESHGDHSGVTHVAHHSSNQPQSSSGVYHKPDENRLPDNLAGLAGRATVKVYSKAEPNYNLTIRDGKVILAPADPSDEAQHWYKDEKYSTKVKDADGHPCFALVNKATGEAMKHSVGATHPVHLIRYVPDKLDESVLWTESKDFGDGYRTIRMVNNTRLNVDAYHGDSKSGGVRDGTTIVLWDWNKGDNQLWKIFPFILEQKLISEEDLNSAVDHHHHHH
Question: Which results are given for B1?
Answer: glycan array binding signal (z-score) (Gal(a1-3)Gal(b1-3)GlcNAc): -0.312; glycan array binding signal (z-score) [1]: 4.38; glycan array binding signal (z-score) [2]: -0.252; glycan array binding signal (z-score) [3]: -0.092; glycan array binding signal (z-score) [4]: 0.898; glycan array binding signal (z-score) (Gal(a1-3)Gal(b1-4)Glc): -0.335; glycan array binding signal (z-score) (Gal(a1-3)Gal(b1-4)GlcNAc): -0.183; glycan array binding signal (z-score) [5]: -0.382; glycan array binding signal (z-score) [6]: -0.163; glycan array binding signal (z-score) [7]: -0.236; glycan array binding signal (z-score) [8]: 0.658; glycan array binding signal (z-score) (Gal(a1-3)GalNAc): -0.22; glycan array binding signal (z-score) [9]: -0.208; glycan array binding signal (z-score) [10]: -0.203; glycan array binding signal (z-score) (Gal(a1-4)Gal(b1-4)Glc): -0.332; glycan array binding signal (z-score) (Gal(a1-4)Gal(b1-4)GlcNAc): -0.204; glycan array binding signal (z-score) [11]: -0.17; glycan array binding signal (z-score) [12]: -0.369; glycan array binding signal (z-score) (Gal(a1-4)GlcNAc): -0.252; glycan array binding signal (z-score) (Gal(a1-6)Glc): -0.342; glycan array binding signal (z-score) (Gal(b1-2)Gal): -0.206; glycan array binding signal (z-score) (Gal(b1-3)Gal): -0.272; glycan array binding signal (z-score) (Gal(b1-3)Gal(b1-4)GlcNAc): -0.32; glycan array binding signal (z-score) [13]: 0.16; glycan array binding signal (z-score) (Gal(b1-3)GalNAc): -0.25; glycan array binding signal (z-score) [14]: -0.273; glycan array binding signal (z-score) [15]: -0.287; glycan array binding signal (z-score) [16]: -0.321; glycan array binding signal (z-score) [17]: -0.234; glycan array binding signal (z-score) [18]: -0.17; glycan array binding signal (z-score) (Gal(b1-3)GlcNAc): -0.367; glycan array binding signal (z-score) [19]: -0.076; glycan array binding signal (z-score) [20]: -0.235; glycan array binding signal (z-score) [21]: 0.023; glycan array binding signal (z-score) [22]: -0.009; glycan array binding signal (z-score) [23]: 0.478; glycan array binding signal (z-score) [24]: -0.045
